This is an account of results in the domain aggregation screens of Martell et al. (2025).

The series is described as follows: soluble fraction after stress (log2 fold change); higher = more stays soluble; pooled small domains, quantitative proteomics. To be noted: stress: pH 4. An outline of the steps:
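Small protein domains from pooled custom libraries were exposed to pH 4, then quantified with high-throughput quantitative proteomics. The fold change in how much of each domain remains soluble is read as aggregation propensity. It is given as log2, with higher values meaning more stayed soluble.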

As to “HMEETALAIGREVGYPVIIKAAGGGGGRGMRVVRNEAELAAAIALTKSEAGQFFKNDMVYMEKYL”, the “soluble fraction (log2)” value was -0.167. For the sequence “HMRRLQTIVYEKGLASTIKQARQMITHGHIFMNGHRVTVPGYLVTRAEESSIEFNPASPFTDEMHPM”, the “soluble fraction (log2)” value turned out to be 0.22. “HMEGHVLRSPMVGTFYASSAPDKPAFVSVGQQVKEGETLAIIEAMKMFNPIEADKSGTIVAILG”: the “soluble fraction (log2)” value was -0.307.
